Out of some 220,000 compounds screened, about 16,000 (7.3%) were called active. Inconclusive results, whose numbers are uncertain, are shown with a selection of clear calls. Calls follow the shape of the dose curve; as a rule, active = well fitted inhibition curve with a large enough effect (not every such curve was filed as active); inconclusive = small, poorly fitted or top-dose-only effect, or another doubt; inactive = no such curve, though single readings can be large or run the other way. No potency is given beside an inconclusive call; the fits are too rough.
Each compound was assayed against Aldehyde dehydrogenase 1A1 (Homo sapiens) (UniProt P00352) (assay: qHTS Assay for Inhibitors of Aldehyde Dehydrogenase 1 (ALDH1A1)). Details: Purified ALDH1A1, NADH fluorescence, propionaldehyde substrate; series mostly up to 75.3 µM; activity, negative = inhibition: at the top concentration.
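For activity, negative = inhibition in this document: plate controls were no enzyme wells and a reference inhibitor.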
Potency is read from the fitted curve at half-maximal effect; tags tell the direction and shape of the fitted curve.

UniProt P00352, sequence (P00352 whole entry, looked up): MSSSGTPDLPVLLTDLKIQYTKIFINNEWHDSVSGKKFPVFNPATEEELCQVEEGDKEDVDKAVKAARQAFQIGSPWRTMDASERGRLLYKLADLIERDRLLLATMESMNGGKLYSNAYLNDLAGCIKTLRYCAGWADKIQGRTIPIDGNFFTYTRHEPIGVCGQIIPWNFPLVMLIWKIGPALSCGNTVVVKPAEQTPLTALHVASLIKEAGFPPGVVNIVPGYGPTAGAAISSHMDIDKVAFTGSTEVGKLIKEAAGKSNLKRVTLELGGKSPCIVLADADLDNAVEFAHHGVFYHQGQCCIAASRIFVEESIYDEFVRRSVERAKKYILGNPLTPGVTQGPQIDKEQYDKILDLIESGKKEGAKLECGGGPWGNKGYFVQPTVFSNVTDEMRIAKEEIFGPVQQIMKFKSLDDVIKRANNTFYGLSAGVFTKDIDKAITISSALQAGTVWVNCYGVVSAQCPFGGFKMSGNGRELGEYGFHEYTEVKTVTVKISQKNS

Compound | activity, negative = inhibition | Potency
CC(=O)c1sc(-c2ccccc2Cl)nc1C | inactive: 3.35% | –
O=C(CN1CCN(c2ccccc2O)CC1)NC(c1ccccc1)c1ccccc1 | – | inconclusive [inhibitor, single point]
COc1ccc(/C=C2\Oc3cc(OC(=O)N4CCOCC4)ccc3C2=O)cc1 | – | inconclusive [inhibitor, single point]
COc1cc(NC(=O)c2cc(C(C)C)on2)c(OC)cc1Cl | – | active: 7.94 µM
COc1cc(NC(=O)C2CCCO2)c(OC)cc1NC(=O)c1ccccc1 (stereo unspecified) | inactive: -7.08% | –
C#CCOc1c(Br)cc(/C=N\NC(=O)CN2CCOCC2)cc1OCC | – | inconclusive [inhibitor, partial curve]
COc1ccc(Cl)cc1NC(=O)C1(c2cccs2)CCOCC1 | – | inconclusive [inhibitor, single point]
Clc1ccc(-c2ccc(/C=N/Nc3nncc(-c4ccccc4)n3)o2)cc1 | inactive: 0.989% | –
COC(=O)c1cc(OC)c(OC)cc1NC(=S)N1CCN(c2ccccn2)CC1 | – | inconclusive [inhibitor, single point]
Oc1ccc(N=Nc2cccc(C(F)(F)F)c2)cc1C=Nc1ccc(N2CCOCC2)cc1 | – | inconclusive [inhibitor, single point]
CSc1nnc(C)c(/C=C/NOCc2ccc(Cl)cc2)n1 | – | inconclusive [inhibitor, single point]
O=[N+]([O-])c1ccc(N2CCN(Cc3ccccc3)CC2)c(S(=O)(=O)N2CCOCC2)c1 | – | inconclusive [inhibitor, partial curve]
CCc1ccc(N2C(=O)c3sc4nnc(-c5ccccc5)c(=O)n4c3C2=O)cc1 | – | inconclusive [inhibitor, single point]
O=C(NNS(=O)(=O)c1ccc(Cl)cc1)c1cnn(-c2ccccc2)c1-n1cccc1 | – | active: 2 µM
CS(=O)(=O)NC1c2cccc3cccc(c23)C1Sc1nncn1/N=C/c1ccco1 (stereo unspecified) | – | inconclusive [inhibitor, single point]
COc1ccc(C(=O)NNC(=S)NC(=O)c2cccnc2)cc1 | – | inconclusive [inhibitor, single point]
CN(Cc1ccccc1)Cc1nc2c(c(=O)n(C)c(=O)n2C)n1Cc1ccccc1Cl | – | inconclusive [inhibitor, partial curve]
O=[N+]([O-])c1cc2c(cc1/C=N/Nc1nc(N3CCCC3)nc(N3CCCC3)n1)OCO2 | inactive: 3.46% | –
O=c1c(Cl)c(NCc2ccccc2Cl)cnn1C12CC3CC(CC(C3)C1)C2 | – | inconclusive [inhibitor, partial curve]
O=C(c1cc(-c2cccs2)on1)N1CCCc2ccccc21 | – | active: 14.1 µM
CN1CCc2nc3sc(C(=O)C45CC6CC(CC(C6)C4)C5)c(N)c3cc2C1 | – | inconclusive [inhibitor, partial curve, poor fit]
CC(NC(=S)Nc1ccc(Cl)cc1Cl)C(c1cccs1)N1CCCC1 (stereo unspecified) | – | inconclusive [inhibitor, single point]
COc1cc(C)nc(N2CCCC(C(=O)Nc3cccc(Cl)c3Cl)C2)n1 (stereo unspecified) | inactive: 6.17% | –
COc1ccc(-c2[nH]c(-c3cccc(OC)c3)nc2SCC(=O)NC2CCCC2)cc1 | – | inconclusive [inhibitor, single point]

Compound | activity, negative = inhibition | Potency
O=C(c1cc(-c2ccncc2)nc2ccccc12)N1CCN(c2ccc(N3CCOCC3)nn2)CC1 | – | inconclusive [inhibitor, single point]
O=C(C#Cc1ccccc1)c1ccc([N+](=O)[O-])cc1 | – | inconclusive [inhibitor, partial curve]
CCN(CC)C(=O)C1CCCN(c2ccc([N+](=O)[O-])cc2/C=N/NC(=O)c2ccccc2)C1 (stereo unspecified) | – | active: 28.2 µM
NC(=O)c1c(NC(NC(=O)c2ccco2)C(=O)c2ccc(Cl)cc2)sc2c1CCCC2 (stereo unspecified) | – | active: 17.8 µM
Cc1cc(=O)c2n(Cc3ccc(Cl)cc3)nc[n+]2[nH]1 | – | active: 20 µM
CC(=O)c1sc2nc(CSc3nnnn3-c3ccccc3)[nH]c(=O)c2c1C | – | active: 25.1 µM
COc1ccc(C(N)CCc2ccco2)cc1 (stereo unspecified) | – | inconclusive [inhibitor, partial curve]
Cc1cccc(C(=O)NC(=S)NNC(=O)c2ccccc2Cl)c1 | – | active: 22.4 µM
CC1CCCN(c2c([N+](=O)[O-])cc(C(=O)O)cc2[N+](=O)[O-])C1 (stereo unspecified) | – | inconclusive [inhibitor, single point]
Cc1cc(NC(=O)CSc2nnnn2-c2ccccc2)no1 | – | active: 15.8 µM
CC/C(Cc1ccccc1)=N\NC(=O)c1cc(C)oc1C | – | inconclusive [inhibitor, single point]
Cc1cc(C(F)(F)F)nc(SCC(=O)NC2CC3CCC2C3)n1 (stereo unspecified) | inactive: -3.71% | –
CCOC(=O)C1CCN(Cc2ccccc2C(F)(F)F)CC1 | – | inconclusive [inhibitor, single point]
N#C/C(=C\C=C\c1ccccc1)C(=O)NCc1cccnc1 | inactive: 0.867% | –
Cc1nc2cnc(N3CCOCC3)nc2n(C2CC2)c1=O | – | inconclusive [inhibitor, single point]
N#CC1=C(N)OC2=C(C(=O)CC(c3ccco3)C2)C1c1ccc(OCc2c(F)cccc2Cl)cc1 (stereo unspecified) | – | active: 8.91 µM
O=C1CC(N2CCN(S(=O)(=O)c3ccc(Cl)cc3)CC2)C(=O)N1CCc1ccccc1 (stereo unspecified) | – | inconclusive [inhibitor, single point]
N#CCCCS(=O)(=O)c1nnnn1-c1ccc(Br)cc1 | – | active: 20 µM
CCn1c(Cn2nnc(-c3ccccc3)n2)nnc1SCC(=O)Nc1ccc(N(C)C)cc1 | – | inconclusive [inhibitor, single point]
CC(=O)c1cc(CN2CCC(N3CCC(C(=O)N4CCCC4)CC3)CC2)cs1 | inactive: -8.59% | –
Cc1ccc(OCCOc2cccc3ccc(C)nc23)c([N+](=O)[O-])c1 | – | active: 14.1 µM
CC(C)NS(=O)(=O)c1ccc(OCC(=O)Nc2ccc3c(c2)OCO3)cc1 | – | inconclusive [inhibitor, partial curve]
COc1ccc(-n2nc3c(c2NC(=O)C24CC5CC(CC(C5)C2)C4)CS(=O)C3)cc1 (stereo unspecified) | – | active: 2.82 µM
CCOc1ccc(C(c2c(O)nc(SC)n(C)c2=O)c2c(O)nc(SC)n(C)c2=O)cc1 | – | inconclusive [inhibitor, single point]

Compound | activity, negative = inhibition | Potency
CCCN1Cc2cccc(C(=O)NCc3ccccc3)c2C1=O | – | inconclusive [inhibitor, single point]
Cn1c(=O)c2c(nc(N3CCN(Cc4ccccc4)CC3)n2CCSc2ncccn2)n(C)c1=O | inactive: 1.72% | –
COc1ccccc1/C=C(/NC(=O)c1ccc(Cl)cc1Cl)C(=O)O | inactive: 5.32% | –
Cc1ccc(CCNC(=O)CN(C)S(=O)(=O)c2cnc[nH]2)cc1 | inactive: -8.11% | –
COC(=O)Cc1cc(=O)oc2cc(OC)ccc12 | – | inconclusive [inhibitor, partial curve]
CCOc1ccccc1C(=O)Nc1cccc(-c2ccc3nncn3n2)c1 | – | inconclusive [inhibitor, single point]
N#Cc1sc2nc3c(cc2c1N)CCCC3 | – | inconclusive [inhibitor, single point]
CC(C(=O)Nc1ccccn1)N1C(=O)C2C3C=CC(C3)C2C1=O (stereo unspecified) | – | active: 25.1 µM
CSCC[C@H](NC(=O)OC(C)(C)C)c1nnc(SCc2ccccc2)o1 | – | inconclusive [inhibitor, single point]
N#Cc1nc(-c2ccccc2F)oc1NCc1cccc2c1OCO2 | – | inconclusive [inhibitor, single point]
CCOC(=O)CSc1nc2ccccc2c(=O)n1Cc1ccco1 | – | inconclusive [inhibitor, single point]
CC1(C)Cc2c(sc3nc(C4CCCCC4)n(N)c(=O)c23)CO1 | – | inconclusive [inhibitor, partial curve]
COCCN(CCOC)Cc1cc(=O)oc2cc3c(cc12)CCC3 | – | inconclusive [inhibitor, single point]
Cn1c(=O)c2c(nc(CN3CCc4ccccc4C3)n2Cc2ccccc2)n(C)c1=O | – | inconclusive [inhibitor, single point]
CN(CCOc1ccccc1)CC(=O)Nc1cc([N+](=O)[O-])ccc1Cl | – | inconclusive [inhibitor, partial curve]
NNC(=O)CCS(=O)(=O)c1ccc2ccccc2c1 | – | inconclusive [inhibitor, single point]
O=C(NCCC1=CCCCC1)C1COc2ccccc2O1 (stereo unspecified) | – | inconclusive [inhibitor, single point]
C[C@@](O)(CNS(=O)(=O)c1ccccc1)c1ccccc1 | inactive: -2.67% [at 13.5 µM] | –
CN(C)Cc1nnnn1-c1cccc(-n2nnnc2CN(C)C)c1 | inactive: -10.2% | –
O=C(c1ccc(-c2cc(Cl)ccc2Cl)o1)N1CCOCC1 | inactive: -9.28% | –
CC1=C(C(N)=O)C(c2cccs2)NC(=S)N1 (stereo unspecified) | – | inconclusive [inhibitor, single point]
O=C1c2cccc3cccc(c23)C(=O)N1OS(=O)(=O)c1ccc(Cl)cc1 | – | inconclusive [inhibitor, partial curve]
COc1ccc(-c2[nH]ncc2CN(C)C(C)c2cccs2)c(F)c1 (stereo unspecified) | – | inconclusive [inhibitor, partial curve, poor fit]
